# Data published in PubChem BioAssay (NCI).
#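 Grown in 96-well plates, cells were treated for 48 hours with each compound at five concentrations. Insufficient inhibition: endpoint recorded as highest concentration tested. GI50 = concentration required for 50% inhibition of growth. TGI: concentration producing complete growth inhibition.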 Peptide text beside a SMILES is read from it.
# Test system: NCI-H322M lung
# Assay: DTP human tumour cell line panel, 48 h
SMILES,TGI [µM],GI50 [µM]
C=CCC1(Sc2ccccn2)Sc2ccc3ccccc3c2-c2c(ccc3ccccc23)S1,> 100,–
Cc1cc2c(c(O)c1-c1c(C)cc(O)c3c1C(=O)C=CC3=O)C(=O)C=CC2=O,31,–
Cn1cc(C2=C(c3cn(-c4ccccc4)c4ccccc34)C(=O)NC2=O)c2ccccc21,> 25,> 25
Cc1ccc(OCC2OC(n3cnc4nc(Nc5ccc(Cl)c(Cl)c5)nc(Cl)c43)CC2Oc2ccc(C)cc2)cc1 (stereo not drawn),> 100,–
Cc1c(/C=N/NC(=S)Nc2ccc(Cl)cc2)c(=O)n(-c2ccccc2)n1C,> 100,–
CCn1c2ccccc2c(=O)c2c(OC)ccc(OC)c21,> 100,–
COc1ccc2nc3c([N+](=O)[O-])ccc4c3c(c2c1)NCCN4CCN(C)C,1.89,–
N#Cc1c(NC(=O)c2ccc(F)cc2)sc2c1CCCC2,> 25,> 25
COc1cccc(-c2cc(=O)c3cc(N4CCOCC4)ccc3[nH]2)c1,25.9,0.0332
COc1cccc(/C=C/C(=O)c2sc(C(N)=S)nc2C)c1O,> 100,–
CCN1c2cc(Br)cc3[nH]c(=O)n(c23)CCC1C (stereo not drawn),39.9,–
O=C1CC(c2ccccc2)Cc2nc3ccc(Br)cc3cc21 (stereo not drawn),> 100,0.766
CCOC(=O)Cn1c2ccc(Br)cc2c2nc3ccccc3nc21,> 100,–
Cc1ccc(S(=O)(=O)N2CCN(C=S)CC2)cc1,> 100,–
CC[C@@]1(O)C(=O)OCc2c1cc1n(c2=O)Cc2cc3ccccc3nc2-1,3.57,0.0698
Cc1ccc(C=C2C(Cl)=C(Cl)C(Cl)=C2Cl)cc1,3.63,1.83
O=[N+]([O-])c1cccc(-c2ncc3c(n2)-c2ccccc2C3)c1,> 100,–
CCOC(=O)CCC(C(=O)OCC)n1nc2ccc(Nc3c(C)[n+]([O-])c4cc(F)c(OCC)cc4[n+]3[O-])cc2n1 (stereo not drawn),> 100,–
O=C(NC(Cc1ccc(Br)cc1)C(=O)O)c1ccc(I)cc1 (stereo not drawn),> 100,–
O=c1[nH]c(N/N=C\C(=N/Nc2nc3ccccc3c(=O)[nH]2)C(O)C(O)C(O)CO)nc2ccccc12 (stereo not drawn),> 100,–
CCC1(CC)C(=O)N(C(=O)c2ccccc2)N(C(=O)c2ccc(Cl)cc2)C1=O,> 75,–
Nc1[nH]c(=S)nc2nc3c(c(-c4ccccc4)c12)CCCC3,> 100,–
CN/C=C(\C(=O)c1ccc(OC)c(OC)c1)c1ccc(OC)cc1,> 100,–
NC(=O)C1CCCN1C(=O)C(N)Cc1ccccc1 (stereo not drawn) (H-Phe-Pro-NH2; configuration not given here),> 100,–
CC1(C)C2CCC1(C)C(OC(=O)/C=C/C(=O)OC1CC3CCC1(C)C3(C)C)C2 (stereo not drawn),> 100,–
CC(=O)O[C@H]1CC[C@H]2[C@@H]3CCC4=CC(=O)C=C[C@]4(O)[C@H]3CC[C@]12C,> 100,–

SMILES,TGI [µM],GI50 [µM]
CC(c1ccc2c(c1)CCC1C2CC2OC23CC=CC(=O)[C@]13C)C1C[C@]2(C)O[C@]2(C)[C@H](O)O1 (stereo partly drawn),> 100,–
COC1(C)C(=O)N2C1N(C(=O)OC(C)(C)C)CC2(C)C (stereo not drawn),> 100,–
CC(C)(c1ccccc1)c1cc(O)c(C(C)(C)c2ccccc2)cc1O,15.8,3.23
CCOC(=O)c1ccc(C(=O)n2ccnc2)[nH]1,> 100,–
CC1(C)N=C(N)N=C(N)N1c1ccc(Cl)cc1,> 100,6.67
O=C(O)CC(NC(=O)/C(=C/c1ccccc1)NC(=O)c1ccccc1)C(=O)O (stereo not drawn),> 100,–
Cc1cc2nc(C=C(C(F)(F)F)C(F)(F)F)sc2cc1C,5.53,–
COc1ccccc1C(=O)NO,> 100,–
COC(=O)[C@]12CC[C@@H](C)[C@H](C)[C@@H]1C1=CC[C@@H]3[C@@]4(C)C[C@@H](OC(=O)/C=C/c5ccccc5)[C@H](O)[C@@](C)(CO)[C@@H]4[C@H](O)C[C@@]3(C)[C@]1(C)CC2,12.7,3.07
CCCCNS(=O)(=O)c1n[nH]c(=O)[nH]c1=O,> 100,–
CCOC(=O)C(CCC(N)=O)(CCC(=O)OC)C(=O)OCC,> 100,–
O=C(NNC1=NCCCN1)c1ccco1,> 100,–
COc1ccc(NC2=C(I)C(=O)c3ncccc3C2=O)cc1,2.87,1.49
O=C1OC(C2Cc3ccc4c(c3C2=O)CCC4)c2ccccc21 (stereo not drawn),> 100,–
Oc1ccc2ccccc2c1N=Nc1cc(Cl)ccc1Cl,> 50,–
O=c1cc(NNCc2ccccc2)[nH]c(=O)[nH]1,> 100,–
C/C(=N\OCC(O)CNCCSCc1ccccc1)c1ccccc1Cl (stereo not drawn),36.9,–
O=[N+]([O-])c1ccc(N/N=C2/CC3=C2CCCCCCCCCC3)c([N+](=O)[O-])c1,> 100,–
CCCCN1C(=O)c2c(Br)sc(Br)c2C1=O,> 100,–
CCN(CC)CC(C)C(=O)/C=C/c1ccc(C)cc1 (stereo not drawn),26,–
CC(=O)OCC1OC(N2C(c3ccccc3)=CC(c3ccco3)C(C#N)=C2S)C(OC(C)=O)C(OC(C)=O)C1OC(C)=O (stereo not drawn),> 100,–
COc1ccc(CCN(CC(=O)N(CC(N)=O)C2CCC[C@@H]2OCc2ccccc2)C(=O)CN(C(=O)CN(CCc2ccc(Cl)cc2)C(=O)CN(C(=O)CN(C)Cc2ccccc2F)[C@H](C)C2CCCCC2)[C@H](C)C2CCCCC2)cc1OC (stereo partly drawn),> 50,1.84
CCOC(=O)CC1(Cc2ccc(OCc3ccccc3)cc2)C(=O)OC(c2ccccc2)N1C(=O)c1ccccc1 (stereo not drawn),> 100,–
N/N=C(\c1nc2ccc([N+](=O)[O-])cc2[nH]c1=O)C(O)c1ccc(Cl)c(Cl)c1 (stereo not drawn),> 100,–
O=c1c2ccccc2c(/C=N\NC2=NCCN2)c2oc3ccccc3n12,86.3,28.2
